Measurements as given in the RNAGym collection of RNA variant scans (doi:10.1093/nar/gkz1192).
Read counts are not given, so values of variants with three or more changes are uncertain.

B1: CPEB3 Ribozyme (parent)
chain: UAACAGGGGGCCACAGCAGAAGCGUUCACGUCGCAGCCCCUGUCAGAUUCUGGUGAAUCUGCGAAUUCUGCUGUAUAUCUC

Variants of: B1
Assay: self-cleavage, relative activity (ratio to wild type); higher = more cleavage; in vitro, sequencing
Outline: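 Barcoded CPEB3 ribozyme mutants, produced by rounds of error-prone PCR, self-cleaved while being transcribed with T7 RNA polymerase for 5 hours at 37°C and during a subsequent 15 min DNase I step before EDTA was added. Sequencing of template-switched cDNA on Illumina gave cleaved and total reads, and DNA sequencing assigned barcodes to variants. Each variant's relative activity is its cleaved/total read fraction divided by the unmutated ribozyme's fraction, averaged across three batches. A variant needed a minimum of 5 reads.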

Row | Variant | self-cleavage
1 | A35G A57G A75G U80C | 1.22
2 | A35G U41C A57U A65G | 0.86
3 | A35G A45U A57G A65G A75G | 0.34
4 | A35G U43C G53A U69C | 0.97
5 | A35G C38A C71A | 0.27
6 | A35G U43A U58C | 1.2
7 | A35G C50U A75G U78C | 1.47
8 | A35G U48C U67C | 0.52
9 | G33C A35G U51A | 0.1
10 | A35G U41C G55C | 1.13
11 | A35G U51C U78C | 1.26
12 | G33C G46U G63A A65G | 0.05
13 | A35C A64G U69C | 0.23
14 | G33U A45G U49C | 0.08
15 | C34U U54G A57G U67C U72A | 0.09
16 | A35G U54C A75G | 1.29
17 | G33C U48A U60G | 0.09
18 | A35G U51C A56U | 1.27
19 | A35G A56G U78C | 1.29
20 | A35G U54C U69C U76C U80A | 1.13
21 | G33A U41C U51A U67C | 0.09

Row | Variant | self-cleavage
22 | A35G A45C U51G | 1.05
23 | A35G U41C A56G A64U A65G U69C U80C | 0.45
24 | C34G U43A A45G U48C A64G U67C U74A | 0.05
25 | A35G A45G G55C A57G U66A A75U U78C | 0.75
26 | A35G A47G U72G U74G U76C | 1.31
27 | A35G U41A A45U U54A | 0.11
28 | G33U A47U A56U | 0.06
29 | A35G A75G U78A | 1.31
30 | A35G A65G U67A | 0.77
31 | G33A U41C U80C | 0.35
32 | A35G U43G U80G | 0.08
33 | A35G C37A U41C U54A | 0.96
34 | C34G C40A A47G U51C U60C A64G | 0.06
35 | A35G C68G U69C C79A | 0.99
36 | G33U A47G U58C U60A U67A | 0.16
37 | C34A G61C U67C | 0.12
38 | A35G G46A U54A | 1.03
39 | A35G U51A U58C C62A | 0.59
40 | C34G U43C U51C U80C | 0.37
41 | G33C U67C U80A | 0.27
42 | A35G U41C U49C | 1.05

Row | Variant | self-cleavage
43 | A35C U41C A47G U54G A65G G73U U76A | 0.25
44 | A35G U41A U48C G63A U72C | 0.2
45 | G33U A64U U66C | 0.19
46 | A35G A45G U69A U78C | 1.19
47 | A35G A47G C79U | 1.32
48 | G33C U54C A56G | 0.16
49 | C34G U43C C62A U72A | 0.15
50 | A35C U43C A47U U76C | 0.12
51 | G33C U67A U74C | 0.21
52 | A35G U41C A45G U54C U74G | 1.29
53 | G33U G63U U67C A77G | 0.09
54 | G33C U43A U54C U67A U76C U80C | 0.16
55 | A35G U41C U54C A64U | 0.97
56 | A35G U41C U43A G61A | 0.36
57 | A35G G63U A65G | 1.25
58 | A35G U41A U43C U72C | 0.16
59 | G33C A35G U54C U58C | 0.08
60 | G33A U51C A56G A77G | 0.17
61 | A35G U58C U78A | 1.25
62 | A35G A65U U74A | 0.94
63 | A35C U51C U58C | 0.41

Row | Variant | self-cleavage
64 | A35G A45G U49C | 0.34
65 | A35G U41C A56C | 1.24
66 | A35G A57G U58C U72C | 0.53
67 | A35G U66C U80A | 1.25
68 | A35C U41C U66A U72C | 0.5
69 | A35G A47G U58C | 1.27
70 | A35G U49C U58A | 0.39
71 | A35G C40A A45G | 0.63
72 | A35G A47G U49A G53A G63U | 1.3
73 | G33A U43A U54A A56C A57G | 0.23
74 | C34G A56G U78A | 0.1
75 | A35G A45G U49C U54C U67A | 0.22
76 | A35G A47G U69C U78C | 1.05
77 | C34U U41C A75U | 0.26
78 | G33U C37G U80C | 0.4
79 | A35G U43C C44U U69C | 0.23
80 | C34U A56G U60C U69C U78C | 0.04
81 | A35G G36A C38U A64G U74C U78G | 0.39
82 | A35G C39U U41C U54G A57U | 1.13
83 | G33C U60A U72C | 0.21
